Some of the results follow.
Tests used:
Assay in all cases: glycan array binding signal (z-score within array); higher = stronger binding
Conditions in all cases: glycan notation: IUPAC condensed, linker removed
[1] = molecular target: Gal(a1-6)Glc
Procedure, shortened: (§1)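 The binding signal is a Z-score computed within each array and averaged over linkers. Arrays of the same protein sequence at different concentrations or buffers were also averaged together. Data originate from 3228 arrays in the Consortium for Functional Glycomics database, kept only where the protein sequence was available.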

[2] = molecular target: Gal(b1-2)Gal
Procedure, shortened: as §1

[3] = molecular target: Gal(b1-3)Gal
Procedure, shortened: as §1

[4] = molecular target: Gal(b1-3)Gal(b1-4)GlcNAc
Procedure, shortened: as §1

[5] = molecular target: Gal(b1-3)Gal(b1-4)GlcNAc(b1-2)Man(a1-3)[Gal(b1-3)Gal(b1-4)GlcNAc(b1-2)Man(a1-6)]Man(b1-4)GlcNAc(b1-4)GlcNAc
Procedure, shortened: as §1

[6] = molecular target: Gal(b1-3)GalNAc
Procedure, shortened: as §1

[7] = molecular target: Gal(b1-3)GalNAc(a1-3)[Fuc(a1-2)]Gal(b1-4)Glc
Procedure, shortened: as §1

[8] = molecular target: Gal(b1-3)GalNAc(a1-3)[Fuc(a1-2)]Gal(b1-4)GlcNAc
Procedure, shortened: as §1

[9] = molecular target: Gal(b1-3)GalNAc(b1-3)Gal
Procedure, shortened: as §1

[10] = molecular target: Gal(b1-3)GalNAc(b1-3)Gal(a1-4)Gal(b1-4)Glc
Procedure, shortened: as §1

[11] = molecular target: Gal(b1-3)GalNAc(b1-4)Gal(b1-4)Glc
Procedure, shortened: as §1

[12] = molecular target: Gal(b1-3)GalNAc(b1-4)[Neu5Ac(a2-3)]Gal(b1-4)Glc
Procedure, shortened: as §1

[13] = molecular target: Gal(b1-3)GlcNAc
Procedure, shortened: as §1

[14] = molecular target: Gal(b1-3)GlcNAc(a1-3)Gal(b1-4)GlcNAc
Procedure, shortened: as §1

[15] = molecular target: Gal(b1-3)GlcNAc(a1-6)Gal(b1-4)GlcNAc
Procedure, shortened: as §1

[16] = molecular target: Gal(b1-3)GlcNAc(b1-2)Man
Procedure, shortened: as §1

[17] = molecular target: Gal(b1-3)GlcNAc(b1-2)Man(a1-3)[Gal(b1-3)GlcNAc(b1-2)Man(a1-6)]Man(b1-4)GlcNAc(b1-4)GlcNAc
Procedure, shortened: as §1

[18] = molecular target: Gal(b1-3)GlcNAc(b1-2)Man(a1-3)[Gal(b1-3)GlcNAc(b1-2)Man(a1-6)]Man(b1-4)GlcNAc(b1-4)[Fuc(a1-6)]GlcNAc
Procedure, shortened: as §1

[19] = molecular target: Gal(b1-3)GlcNAc(b1-2)Man(a1-3)[GlcNAc(b1-4)][Gal(b1-3)GlcNAc(b1-2)Man(a1-6)]Man(b1-4)GlcNAc(b1-4)GlcNAc
Procedure, shortened: as §1

[20] = molecular target: Gal(b1-3)GlcNAc(b1-2)[Gal(b1-3)GlcNAc(b1-6)]Man(a1-6)[Gal(b1-3)GlcNAc(b1-2)Man(a1-3)]Man(b1-4)GlcNAc(b1-4)GlcNAc
Procedure, shortened: as §1

[21] = molecular target: Gal(b1-3)GlcNAc(b1-3)Gal(b1-3)GlcNAc
Procedure, shortened: as §1

[22] = molecular target: Gal(b1-3)GlcNAc(b1-3)Gal(b1-4)Glc
Procedure, shortened: as §1

[23] = molecular target: Gal(b1-3)GlcNAc(b1-3)Gal(b1-4)GlcNAc
Procedure, shortened: as §1

[24] = molecular target: Gal(b1-3)GlcNAc(b1-3)Gal(b1-4)GlcNAc(b1-2)Man(a1-3)[Gal(b1-3)GlcNAc(b1-3)Gal(b1-4)GlcNAc(b1-2)Man(a1-6)]Man(b1-4)GlcNAc(b1-4)GlcNAc
Procedure, shortened: as §1

[25] = molecular target: Gal(b1-3)GlcNAc(b1-3)Gal(b1-4)GlcNAc(b1-2)[Gal(b1-3)GlcNAc(b1-3)Gal(b1-4)GlcNAc(b1-6)]Man(a1-6)[Gal(b1-3)GlcNAc(b1-3)Gal(b1-4)GlcNAc(b1-2)Man(a1-3)]Man(b1-4)GlcNAc(b1-4)[Fuc(a1-6)]GlcNAc
Procedure, shortened: as §1

[26] = molecular target: Gal(b1-3)GlcNAc(b1-3)Gal(b1-4)GlcNAc(b1-3)Gal(b1-4)GlcNAc(b1-2)[Gal(b1-3)GlcNAc(b1-3)Gal(b1-4)GlcNAc(b1-3)Gal(b1-4)GlcNAc(b1-6)]Man(a1-6)[Gal(b1-3)GlcNAc(b1-3)Gal(b1-4)GlcNAc(b1-3)Gal(b1-4)GlcNAc(b1-2)Man(a1-3)]Man(b1-4)GlcNAc(b1-4)[Fuc(a1-6)]GlcNAc
Procedure, shortened: as §1

[27] = molecular target: Gal(b1-3)GlcNAc(b1-3)Gal(b1-4)GlcNAc(b1-6)[Gal(b1-3)GlcNAc(b1-3)]Gal(b1-4)Glc
Procedure, shortened: as §1

[28] = molecular target: Gal(b1-3)GlcNAc(b1-3)Gal(b1-4)[Fuc(a1-3)]GlcNAc
Procedure, shortened: as §1

[29] = molecular target: Gal(b1-3)GlcNAc(b1-3)Gal(b1-4)[Fuc(a1-3)]GlcNAc(b1-6)[Gal(b1-3)GlcNAc(b1-3)]Gal(b1-4)Glc
Procedure, shortened: as §1

[30] = molecular target: Gal(b1-3)GlcNAc(b1-3)GalNAc
Procedure, shortened: as §1

[31] = molecular target: Gal(b1-3)GlcNAc(b1-6)Gal(b1-4)GlcNAc
Procedure, shortened: as §1

[32] = molecular target: Gal(b1-3)GlcNAc(b1-6)GalNAc
Procedure, shortened: as §1

[33] = molecular target: Gal(b1-3)GlcNAc(b1-6)[Gal(b1-3)]GalNAc
Procedure, shortened: as §1

[34] = molecular target: Gal(b1-3)GlcNAc6S
Procedure, shortened: as §1

[35] = molecular target: Gal(b1-3)[Fuc(a1-4)]GlcNAc
Procedure, shortened: as §1

[36] = molecular target: Gal(b1-3)[Fuc(a1-4)]GlcNAc(b1-2)Man
Procedure, shortened: as §1

[37] = molecular target: Gal(b1-3)[Fuc(a1-4)]GlcNAc(b1-2)Man(a1-3)[Gal(b1-3)[Fuc(a1-4)]GlcNAc(b1-2)Man(a1-6)]Man(b1-4)GlcNAc(b1-4)GlcNAc
Procedure, shortened: as §1

[38] = molecular target: Gal(b1-3)[Fuc(a1-4)]GlcNAc(b1-2)Man(a1-3)[Gal(b1-3)[Fuc(a1-4)]GlcNAc(b1-2)Man(a1-6)]Man(b1-4)GlcNAc(b1-4)[Fuc(a1-6)]GlcNAc
Procedure, shortened: as §1

B1: rAAL-2 (Agrocybe aegerita) (protein)
chain: MTSNVITQDLPIPVASRGFADIVGFGLDGVVIGRNAVNLQPFLAVKNFAQNAGGWLTTKHVRLIADTTGTGKGDIVGFGNAGVYVSVNNGKNTFADPPKMVIANFGYDAGGWRVEKHLRYLADIRKIGRADIIGFGEKGVLVSRNNGGLNFGPATLVLKDFGYDAGGWRLDRHLRFLADVTGNGHLDIVGFGDKHVFISRNNGDGTFAPAKSVIDNFCIDAGGWKIGDHPRFVADLTGDGTADIIGCGKAGCWVALNNGGGVFGQVKLVINDFGTDKGWQAAKHPRFIADLTGNGRGDVVGFGNAGVYVALNNGDGTFQSAKLVLKDFGVQQGWTVSKHRRFVVDLTGDGCADIIGFGEKETLVSYNDGKGNFGPVKALTNDFSFSGGKWAPETTVCWMANLDSSRH
Question: With B1 as the binder, how does the “glycan array binding signal (z-score)” value [1] read?
Answer: -0.108

Question: What about the “glycan array binding signal (z-score)” value [2] of the same binder?
Answer: -0.338

Question: And the “glycan array binding signal (z-score)” value [3]?
Answer: -0.27

Question: What about the “glycan array binding signal (z-score)” value [4] of the same binder?
Answer: -0.313

Question: What about the “glycan array binding signal (z-score)” value [5] of the same binder?
Answer: -0.149

Question: What about the “glycan array binding signal (z-score)” value [6] of the same binder?
Answer: -0.241

Question: What about the “glycan array binding signal (z-score)” value [7] of the same binder?
Answer: 0.116

Question: What about the “glycan array binding signal (z-score)” value [8] of the same binder?
Answer: -0.131

Question: And the “glycan array binding signal (z-score)” value [9]?
Answer: -0.498

Question: What about the “glycan array binding signal (z-score)” value [10] of the same binder?
Answer: -0.152

Question: And the “glycan array binding signal (z-score)” value [11]?
Answer: -0.272

Question: What about the “glycan array binding signal (z-score)” value [12] of the same binder?
Answer: -0.36

Question: What about the “glycan array binding signal (z-score)” value [13] of the same binder?
Answer: -0.242

Question: And the “glycan array binding signal (z-score)” value [14]?
Answer: -0.083

Question: And the “glycan array binding signal (z-score)” value [15]?
Answer: -0.314

Question: And the “glycan array binding signal (z-score)” value [16]?
Answer: -0.274

Question: What about the “glycan array binding signal (z-score)” value [17] of the same binder?
Answer: -0.015

Question: And the “glycan array binding signal (z-score)” value [18]?
Answer: -0.223

Question: And the “glycan array binding signal (z-score)” value [19]?
Answer: -0.115

Question: What about the “glycan array binding signal (z-score)” value [20] of the same binder?
Answer: -0.086

Question: What about the “glycan array binding signal (z-score)” value [21] of the same binder?
Answer: -0.172

Question: What about the “glycan array binding signal (z-score)” value [22] of the same binder?
Answer: -0.157

Question: What about the “glycan array binding signal (z-score)” value [23] of the same binder?
Answer: -0.299

Question: What about the “glycan array binding signal (z-score)” value [24] of the same binder?
Answer: -0.255

Question: What about the “glycan array binding signal (z-score)” value [25] of the same binder?
Answer: -0.063

Question: What about the “glycan array binding signal (z-score)” value [26] of the same binder?
Answer: -0.184

Question: And the “glycan array binding signal (z-score)” value [27]?
Answer: -0.234

Question: And the “glycan array binding signal (z-score)” value [28]?
Answer: -0.271

Question: What about the “glycan array binding signal (z-score)” value [29] of the same binder?
Answer: -0.38

Question: What about the “glycan array binding signal (z-score)” value [30] of the same binder?
Answer: -0.228

Question: What about the “glycan array binding signal (z-score)” value [31] of the same binder?
Answer: -0.337

Question: What about the “glycan array binding signal (z-score)” value [32] of the same binder?
Answer: -0.261

Question: What about the “glycan array binding signal (z-score)” value [33] of the same binder?
Answer: -0.398

Question: And the “glycan array binding signal (z-score)” value [34]?
Answer: -0.131

Question: And the “glycan array binding signal (z-score)” value [35]?
Answer: -0.212

Question: What about the “glycan array binding signal (z-score)” value [36] of the same binder?
Answer: 1

Question: And the “glycan array binding signal (z-score)” value [37]?
Answer: -0.186

Question: What about the “glycan array binding signal (z-score)” value [38] of the same binder?
Answer: -0.017
